In PubChem BioAssay AID651687 (Broad Institute, 2012):
In all, about 350,000 compounds went through this assay and about 600 (0.17%) were called active. Inconclusive means that the source gave no clear call. Such entries were picked first, then a sample of the others.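 The calls were made as follows: active = every replicate shows inhibition of at least 40%; inconclusive = mean inhibition at least 40% but some replicate below; inactive = the rest.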

Experiment: inhibitors of PGC1a acetylation signal, primary screen, cell-based, U2OS, AlphaScreen, inhibitor mode (AID 651687);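 also: 0% = neutral control wells and 100% = positive control wells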
Conditions: AlphaScreen anti-acetyl-lysine, at 15.6 µM, stronger effect = higher value, with virally co-expressed GCN5 acetyltransferase

| SMILES | inhibition |
| --- | --- |
| CCC(=O)Nc1ccc2c(c1)C(=O)N(C)[C@@H]1CC[C@H](CC(=O)NCCOC)O[C@@H]1CO2 | inactive: 2.51% |
| CC(C)c1ccc(/C=N/n2nnnc2Nc2ccccc2)cc1 | inconclusive: 45.8% |
| O=C(c1ccc(CN2CCOCC2)cc1)N1CCN(Cc2ccccc2)CC1 | inconclusive: 43.2% |
| COc1ccccc1CN1C[C@@H]2C[C@@H](c3cccc(C)n3)N3CCC[C@@]23C1=O | inconclusive: 43.2% |
| N#Cc1c(-c2cccc(Br)c2)cc(-c2ccco2)[nH]c1=O | inconclusive: 42.6% |
| CCOC(=O)c1ccc(NC(=O)CCS(=O)(=O)Cc2ccccc2)cc1 | inactive: 1.11% |
| C[C@H](CO)N1C[C@H](C)[C@@H](CN(C)C(=O)c2ccccn2)Oc2ncc(-c3cccc(C#N)c3)cc2C1=O | inconclusive: 57.5% |
| CC(=O)n1nc2nc(C)cc(C)c2c1N | inconclusive: 40.7% |
| O=C(CSc1nc(O)cc(=O)n1-c1ccccc1)N1CCCCC1 | inconclusive: 43.8% |
| CC(C(=O)N1CCc2ccccc2C1)N(c1ccccc1)S(C)(=O)=O (stereo not given) | inconclusive: 51.5% |
| CN(C[C@H]1N[C@@H](CO)[C@@H]1c1ccc(C2=CCCC2)cc1)C(=O)c1ccc(F)cc1 | active: 78.8% |
| CCCC1S/C(=N/N=C/c2ccc(C)cc2)N(Cc2ccc(OC)cc2)C1=O (stereo not given) | inconclusive: 40.5% |
| Cc1ccc(N2C(=O)c3ccccc3NC2C(C)Cc2ccc3c(c2)OCO3)cc1 (stereo not given) | inconclusive: 40.2% |
| CC[C@@H]1CCC[C@@H](O)[C@@H](C)C(=O)O[C@H](C)[C@@H](C)C/C=C(C)/C(OC)=C\C(=O)N(C)C([C@@H](C)CC)C(=O)N(C)[C@@H](C(C)C)C(=O)N(C)[C@@H](COC)C(=O)N2CCC[C@H]2C(=O)N(C)[C@@H](C(C)C)C(=O)N2CCC[C@H]2C(=O)O1 (stereo not given in full) | inactive: 32.3% |
| CCOC(=O)CN1C(=N)N(c2nc(NC(C)C)nc(OC)n2)CC1=O | inconclusive: 44.6% |
| CCOc1ccc2[nH]c(=O)c(CN(Cc3cccs3)Cc3nnnn3C(C)(C)C)cc2c1 | inactive: -7.98% |
| OC[C@@H]1CN(Cc2ccccc2)C[C@H](n2cnc3c(NCc4ccco4)ncnc32)O1 | active: 101% |
| C[C@@H]1CN([C@@H](C)CO)C(=O)Cc2cc(NC(=O)Nc3ccc(C(F)(F)F)cc3)ccc2O[C@@H]1CN(C)Cc1ccc(Oc2ccccc2)cc1 | inactive: -6.25% |
| O=C(CSc1ccccc1C(=O)O)NC1CCCCCC1 | inactive: -7.9% |
| COc1ccc(C(=O)Nc2cccc(S(C)(=O)=O)c2)cc1OC | inconclusive: 41.4% |
